Measurements as given in a compilation of properties of binary mixtures (doi:10.1021/je700188w).
The densities may have been worked out from excess volumes.

Test: xn = mol fraction of the nth substance listed
Conditions: 100 kPa

## COS(=O)(=O)[O-].Cn1cc[n+](C)c1 + CO
313.15 K, x2 = 0.1212
  mass density: 1306.7 kg/m3
313.15 K, x2 = 0.2015
  mass density: 1293.3 kg/m3
313.15 K, x2 = 0.322
  mass density: 1272.4 kg/m3
313.15 K, x2 = 0.4001
  mass density: 1259.6 kg/m3
313.15 K, x2 = 0.7745
  mass density: 1099.7 kg/m3
313.15 K, x2 = 0.8744
  mass density: 995.7 kg/m3
313.15 K, x2 = 0.9405
  mass density: 897.4 kg/m3
318.15 K, x2 = 0.1212
  mass density: 1303 kg/m3
318.15 K, x2 = 0.2015
  mass density: 1289.6 kg/m3
318.15 K, x2 = 0.4001
  mass density: 1256.2 kg/m3
318.15 K, x2 = 0.5642
  mass density: 1211 kg/m3
318.15 K, x2 = 0.6513
  mass density: 1173.6 kg/m3
318.15 K, x2 = 0.8744
  mass density: 991.3 kg/m3
318.15 K, x2 = 0.9405
  mass density: 892.8 kg/m3
323.15 K, x2 = 0.1212
  mass density: 1298.6 kg/m3
323.15 K, x2 = 0.2015
  mass density: 1286.2 kg/m3
323.15 K, x2 = 0.322
  mass density: 1265.8 kg/m3
323.15 K, x2 = 0.4001
  mass density: 1253.3 kg/m3
323.15 K, x2 = 0.5642
  mass density: 1207.3 kg/m3
323.15 K, x2 = 0.7745
  mass density: 1094.4 kg/m3
323.15 K, x2 = 0.8744
  mass density: 987.1 kg/m3
323.15 K, x2 = 0.9405
  mass density: 888.5 kg/m3
328.15 K, x2 = 0.1212
  mass density: 1295.2 kg/m3
328.15 K, x2 = 0.322
  mass density: 1261.6 kg/m3
328.15 K, x2 = 0.5642
  mass density: 1203.7 kg/m3
328.15 K, x2 = 0.6513
  mass density: 1166.8 kg/m3
328.15 K, x2 = 0.7745
  mass density: 1091 kg/m3
328.15 K, x2 = 0.8744
  mass density: 982.9 kg/m3
333.15 K, x2 = 0.1212
  mass density: 1292 kg/m3
333.15 K, x2 = 0.2015
  mass density: 1279 kg/m3
333.15 K, x2 = 0.4001
  mass density: 1244.8 kg/m3
333.15 K, x2 = 0.5642
  mass density: 1200.1 kg/m3
333.15 K, x2 = 0.7745
  mass density: 1087.3 kg/m3
333.15 K, x2 = 0.9405
  mass density: 879.4 kg/m3
